Measured values reported in the supplement of paper PMC4996465.

What was measured:
[1] = system: Nalm-6; assay: log AC50 of viability decrease (48 h) (log10 M); higher = less potent
Experimental: (§1)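 Eleven-dose screen of the NCATS MIPE 3 library on cells without co-treatment; CellTiter-Glo after 48 h. AC50 from the curve fit; only inhibitory curves of the better fit classes are listed.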

[2] = system: KB3-1; assay: as above
Experimental: as §1

[3] = system: Nalm-6; assay: viability (% of DMSO control); higher = more viable cells
Experimental: (§2)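 Eleven-dose screen of the NCATS MIPE 3 library on cells without co-treatment; CellTiter-Glo after 48 h, as % of DMSO wells.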

[4] = system: KB3-1; assay: as above
Experimental: as §2

Compound: O=C(C1CC1)N1CC[C@@H](Cn2c(-c3ccc(-c4ccc5occc5c4)cc3)nc3cnccc32)C1
- log AC50 of viability decrease ([1]; run: 1): -4.68
- log AC50 of viability decrease ([1]; run: 2): -4.68
- log AC50 of viability decrease [2]: -4.78
- viability ([3]; run: 1, 0.00078 µM): 124%
- viability ([3]; run: 1, 0.00234 µM): 120%
- viability ([3]; run: 1, 0.00702 µM): 124%
- viability ([3]; run: 1, 0.0211 µM): 116%
- viability ([3]; run: 1, 0.0632 µM): 112%
- viability ([3]; run: 1, 0.19 µM): 120%
- viability ([3]; run: 1, 0.569 µM): 112%
- viability ([3]; run: 1, 1.71 µM): 103%
- viability ([3]; run: 1, 5.12 µM): 99.5%
- viability ([3]; run: 1, 15.4 µM): 87.2%
- viability ([3]; run: 1, 46.1 µM): 13.2%
- viability ([3]; run: 2, 0.00078 µM): 114%
- viability ([3]; run: 2, 0.00234 µM): 110%
- viability ([3]; run: 2, 0.00702 µM): 109%
- viability ([3]; run: 2, 0.0211 µM): 114%
- viability ([3]; run: 2, 0.0632 µM): 112%
- viability ([3]; run: 2, 0.19 µM): 108%
- viability ([3]; run: 2, 0.569 µM): 116%
- viability ([3]; run: 2, 1.71 µM): 101%
- viability ([3]; run: 2, 5.12 µM): 98.3%
- viability ([3]; run: 2, 15.4 µM): 82.2%
- viability ([3]; run: 2, 46.1 µM): 20.9%
- viability ([4]; 0.00078 µM): 108%
- viability ([4]; 0.00234 µM): 106%
- viability ([4]; 0.00702 µM): 108%
- viability ([4]; 0.0211 µM): 113%
- viability ([4]; 0.0632 µM): 110%
- viability ([4]; 0.19 µM): 113%
- viability ([4]; 0.569 µM): 107%
- viability ([4]; 1.71 µM): 103%
- viability ([4]; 5.12 µM): 100%
- viability ([4]; 15.4 µM): 88.7%
- viability ([4]; 46.1 µM): 73.5%

Compound: COc1cc2c(cc1O)CC[C@@H]1[C@@H]2CC[C@]2(C)[C@@H](O)CC[C@@H]12 [2-Methoxyestradiol]
- log AC50 of viability decrease ([1]; run: 1): -6.08
- log AC50 of viability decrease ([1]; run: 2): -6.38
- log AC50 of viability decrease [2]: -6.08
- viability ([3]; run: 1, 0.00078 µM): 117%
- viability ([3]; run: 1, 0.00234 µM): 106%
- viability ([3]; run: 1, 0.00702 µM): 115%
- viability ([3]; run: 1, 0.0211 µM): 113%
- viability ([3]; run: 1, 0.0632 µM): 123%
- viability ([3]; run: 1, 0.19 µM): 112%
- viability ([3]; run: 1, 0.569 µM): 89.5%
- viability ([3]; run: 1, 1.71 µM): 31.2%
- viability ([3]; run: 1, 5.12 µM): 40.5%
- viability ([3]; run: 1, 15.4 µM): 26.8%
- viability ([3]; run: 1, 46.1 µM): 8.85%
- viability ([3]; run: 2, 0.00078 µM): 110%
- viability ([3]; run: 2, 0.00234 µM): 105%
- viability ([3]; run: 2, 0.00702 µM): 111%
- viability ([3]; run: 2, 0.0211 µM): 105%
- viability ([3]; run: 2, 0.0632 µM): 108%
- viability ([3]; run: 2, 0.19 µM): 104%
- viability ([3]; run: 2, 0.569 µM): 41%
- viability ([3]; run: 2, 1.71 µM): 16.4%
- viability ([3]; run: 2, 5.12 µM): 17.5%
- viability ([3]; run: 2, 15.4 µM): 24.9%
- viability ([3]; run: 2, 46.1 µM): 4.46%
- viability ([4]; 0.00078 µM): 99.4%
- viability ([4]; 0.00234 µM): 100%
- viability ([4]; 0.00702 µM): 101%
- viability ([4]; 0.0211 µM): 103%
- viability ([4]; 0.0632 µM): 104%
- viability ([4]; 0.19 µM): 102%
- viability ([4]; 0.569 µM): 69%
- viability ([4]; 1.71 µM): 36.8%
- viability ([4]; 5.12 µM): 28.4%
- viability ([4]; 15.4 µM): 23.2%
- viability ([4]; 46.1 µM): 10.9%

Compound: NC/1=N/C(=O)N(/C=N1)[C@@H]2O[C@H](CO)[C@@H](O)[C@H]2O [5-Azacitidine]
- log AC50 of viability decrease ([1]; run: 1): -5.58
- log AC50 of viability decrease ([1]; run: 2): -5.38
- log AC50 of viability decrease [2]: -4.83
- viability ([3]; run: 1, 0.00078 µM): 102%
- viability ([3]; run: 1, 0.00234 µM): 95.9%
- viability ([3]; run: 1, 0.00702 µM): 107%
- viability ([3]; run: 1, 0.0211 µM): 115%
- viability ([3]; run: 1, 0.0632 µM): 103%
- viability ([3]; run: 1, 0.19 µM): 110%
- viability ([3]; run: 1, 0.569 µM): 97.4%
- viability ([3]; run: 1, 1.71 µM): 70.5%
- viability ([3]; run: 1, 5.12 µM): 35.2%
- viability ([3]; run: 1, 15.4 µM): 17.6%
- viability ([3]; run: 1, 46.1 µM): 9.33%
- viability ([3]; run: 2, 0.00078 µM): 110%
- viability ([3]; run: 2, 0.00234 µM): 100%
- viability ([3]; run: 2, 0.00702 µM): 112%
- viability ([3]; run: 2, 0.0211 µM): 111%
- viability ([3]; run: 2, 0.0632 µM): 102%
- viability ([3]; run: 2, 0.19 µM): 105%
- viability ([3]; run: 2, 0.569 µM): 88.1%
- viability ([3]; run: 2, 1.71 µM): 86%
- viability ([3]; run: 2, 5.12 µM): 43.1%
- viability ([3]; run: 2, 15.4 µM): 13.5%
- viability ([3]; run: 2, 46.1 µM): 5.28%
- viability ([4]; 0.00078 µM): 102%
- viability ([4]; 0.00234 µM): 111%
- viability ([4]; 0.00702 µM): 103%
- viability ([4]; 0.0211 µM): 104%
- viability ([4]; 0.0632 µM): 101%
- viability ([4]; 0.19 µM): 99.4%
- viability ([4]; 0.569 µM): 95.6%
- viability ([4]; 1.71 µM): 83.8%
- viability ([4]; 5.12 µM): 67.9%
- viability ([4]; 15.4 µM): 49.3%
- viability ([4]; 46.1 µM): 10.2%

Viability of KB3-1 and Nalm-6 cells after 48 h of drug alone (CellTiter-Glo), 11 doses over about 4.5 log units. % of DMSO wells, lower = more cell loss; AC50 from the fitted curve, lower = more potent. No active / inactive call. Nalm-6 was screened in two runs. AC50 is listed only for well-fitted inhibitory curves. KB3-1 is a HeLa-derived carcinoma line, Nalm-6 a B-cell precursor leukaemia line.
